# The supplement of paper PMC3334620
# In all, about 33,000 sequences were measured (“E-score (-0.5 to 0.5)”: median about -0.012, highest 2% from about 0.29 on). This is one part of the list.
# Target: T1, Ybr033w (UniProt P38073)
# T1 sequence: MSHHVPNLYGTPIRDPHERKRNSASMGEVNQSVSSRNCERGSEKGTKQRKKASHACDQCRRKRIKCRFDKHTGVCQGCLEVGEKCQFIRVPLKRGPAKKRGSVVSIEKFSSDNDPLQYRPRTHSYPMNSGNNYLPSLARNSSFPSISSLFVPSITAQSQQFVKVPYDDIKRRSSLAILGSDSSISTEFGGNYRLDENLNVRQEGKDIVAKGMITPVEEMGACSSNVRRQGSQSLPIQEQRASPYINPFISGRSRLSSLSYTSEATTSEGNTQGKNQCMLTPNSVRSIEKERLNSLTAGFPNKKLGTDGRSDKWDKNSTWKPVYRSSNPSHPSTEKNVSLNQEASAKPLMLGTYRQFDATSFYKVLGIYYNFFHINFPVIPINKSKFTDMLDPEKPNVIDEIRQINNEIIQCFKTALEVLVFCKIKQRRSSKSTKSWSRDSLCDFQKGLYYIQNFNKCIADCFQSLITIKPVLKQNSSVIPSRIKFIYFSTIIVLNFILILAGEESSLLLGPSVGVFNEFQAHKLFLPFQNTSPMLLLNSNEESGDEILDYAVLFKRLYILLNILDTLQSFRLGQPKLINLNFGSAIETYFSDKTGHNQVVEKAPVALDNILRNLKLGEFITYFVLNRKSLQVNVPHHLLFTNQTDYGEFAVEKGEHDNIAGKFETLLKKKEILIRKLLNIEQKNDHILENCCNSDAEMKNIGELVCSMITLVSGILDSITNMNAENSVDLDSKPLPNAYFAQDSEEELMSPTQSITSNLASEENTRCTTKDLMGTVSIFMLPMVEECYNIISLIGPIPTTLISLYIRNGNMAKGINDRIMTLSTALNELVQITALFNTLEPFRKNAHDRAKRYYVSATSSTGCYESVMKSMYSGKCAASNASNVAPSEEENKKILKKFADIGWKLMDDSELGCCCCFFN
# Test: PBM E-score (8-mer binding enrichment) (E-score (-0.5 to 0.5)); higher = stronger / more preferred TF binding; most listed sequences are background and not binding sites
# Details: protein concentration: 200 nM; construct: GST-full length
# Method: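 Universal 'all 10-mer' protein binding microarrays (Agilent AMADID 015681) probed with GST-tagged S. cerevisiae TFs (full-length or DBD) made by in vitro transcription/translation (PURExpress), about 100-200 nM. Bound TF was detected with fluorescent anti-GST. Each ungapped 8-mer (which stands for itself and its reverse complement) is scored by the PBM enrichment score (E-score), a modified Wilcoxon-Mann-Whitney statistic from -0.5 to +0.5, computed with the Universal PBM Analysis Suite. Scale: above 0.35 generally sequence-specific binding.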
row,Sequence,PBM E-score
1,ACTCAGCG,-0.0413
2,CAGGTACC,-0.211
3,CCTCCTCG,-0.252
4,GAACGGGC,-0.282
5,GAAGCGTC,-0.208
6,AGTCTGCG,-0.321
7,GTTGGGGA,-0.17
8,AGTGGGTA,0.0537
9,AGACCGAT,-0.0377
10,AGCATCCC,-0.261
11,CACATGGG,-0.192
12,ACTACAAC,0.206
13,TATGGGAA,-0.0118
14,AAAAACGA,0.275
15,CACGCAGA,0.0953
16,TCTCCGCA,-0.0407
17,CCTCCCGC,-0.175
18,ACAGGACC,-0.0354
19,AGCACGAG,0.0967
20,GGTATCAA,0.0433
21,ATGTCGCG,-0.111
22,AGGGATCC,-0.215

row,Sequence,PBM E-score
1,CGAGAACG,-0.101
2,GCTGACCA,0.0331
3,ACTTGTTC,0.25
4,GCGAGACC,-0.0977
5,AATGAATT,0.272
6,GAAGAACC,0.248
7,ATTTTTGC,0.308
8,GCGTGAGA,0.00863
9,ATTGTCGG,-0.141
10,AACCTTTC,-0.0863
11,CGGAAAAG,0.107
12,AAGAGAGT,-0.00066
13,CCACAACC,0.11
14,CTAGAGCC,-0.0992
15,AACCAGCA,0.0219
16,CACTCTCC,0.00157
17,ACTGGTGA,-0.0598
18,CCCCCCCA,-0.408
19,GATGCATA,0.0744
20,CCTTAATA,0.129
21,GGTACAGA,0.132
22,CAAGATAG,0.00072

row,Sequence,PBM E-score
1,GCGATTAC,0.00833
2,CATCCTGC,-0.163
3,CCACTCAC,-0.157
4,GACCGCGA,-0.231
5,GCAAGCCC,-0.113
6,GTATGAGA,0.0734
7,ATAGCAAA,0.19
8,CATGCGGC,-0.2
9,ATGAGGAA,0.0885
10,AAGCGCGG,-0.121
11,CCAAGCGA,-0.0712
12,CCCGACAC,-0.406
13,ATCCCATA,0.0403
14,CAAGTTGG,0.0144
15,CATGGTCC,-0.282
16,ATACTGCG,-0.0707
17,AGTCACAA,0.0701
18,AGTGCATA,-0.0691
19,ATCTCCCC,-0.185
20,ACAAATTA,0.328
21,ATGGGTCA,-0.229
22,CCATCCCA,-0.249

row,Sequence,PBM E-score
1,AATGTGTC,0.0716
2,TGACACAA,0.0666
3,CCCTTAGA,-0.117
4,CGTTCTCA,-0.0566
5,GGTTCGAC,-0.203
6,CAACCATC,-0.117
7,AACGGGCC,-0.236
8,CAGAGAGC,-0.269
9,ACTACGCA,-0.163
10,AGAATTAC,0.181
11,CCAGACCA,-0.02
12,GAATGTCA,-0.166
13,CTCACACA,0.0175
14,GCTAGAAA,0.164
15,CTATGCAC,-0.134
16,TGAGCCAA,0.0416
17,GACACACC,-0.0728
18,AAGAATTG,0.2
19,GATGCGCC,-0.131
20,CAACTGGA,0.00332
